From PubChem BioAssay AID1745853 (National Center for Advancing Translational Sciences (NCATS), 2022) come the findings set out here.

Common to all, as to test: Primary Screen for Target Class Profiling of Small Molecule Inhibitors of Methyltransferases
Experiment [1] addresses Glycine N-methyltransferase (Homo sapiens) (UniProt Q14749). The conditions noted are these: purified enzyme, MTase-Glo SAH luminescence; measured here: GNMT inhibition; at 40 µM; stronger effect = lower value. A digest of the protocol:
(§1)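 Each enzyme was assayed with SAM and its substrate. SAH formation detected by MTase-Glo luminescence; single-point 40 uM screen[…].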

In experiment [2] the target is Guanidinoacetate N-methyltransferase (Homo sapiens) (UniProt Q14353). The conditions noted are these: purified enzyme, MTase-Glo SAH luminescence; measured here: GAMT inhibition; at 40 µM; stronger effect = lower value. The method, boiled down: as §1
Experiment [3] has as its target Histamine N-methyltransferase (Homo sapiens) (UniProt P50135). The following applies: purified enzyme, MTase-Glo SAH luminescence; measured here: HNMT inhibition; at 40 µM; stronger effect = lower value. The method, boiled down:
as §1

Experiment [4] concerns the target Nicotinamide N-methyltransferase (Homo sapiens) (UniProt P40261). The following applies: purified enzyme, MTase-Glo SAH luminescence; measured here: NNMT inhibition; at 40 µM; stronger effect = lower value. The method, boiled down: as §1
In experiment [5] the target is Phenylethanolamine N-methyltransferase (Homo sapiens) (UniProt P11086). The following applies: purified enzyme, MTase-Glo SAH luminescence; measured here: PNMT inhibition; at 40 µM; stronger effect = lower value. A digest of the protocol:
as §1

Some of the results follow. Shown are side measurements of this screen, not its main read-out; they come without a call.
% is set by controls: 0 for no effect and ±100 for the full control effect.

Consider `CC1(C(=O)NC2CCCCCC2)Cn2nc(-c3ccco3)cc2C(=O)N1Cc1ccco1` (stereo not given), for which the activity change, negative = inhibition in experiment [1] was 2.83%; in experiment [2], -11.7%; in experiment [3] it was 8.82%; in experiment [4], -3.37%; in experiment [5], 0.3%.

Regarding `C=Cc1ccc(Cn2nc3n(CCC)c(=O)c4ccccc4n3c2=O)cc1`, the activity change, negative = inhibition in experiment [1] is -5.43%; in experiment [2] it was 4.25%; in experiment [3] it was 2.13%; in experiment [4], -15%; in experiment [5] it was -1.06%.

For `Cc1cccc(N2C(=O)c3cc4occc4n3CC2(C)C(=O)NC2CCCC(C)C2C)c1C` (stereo not given), the activity change, negative = inhibition in experiment [1] was -3.27%; in experiment [2], 2.14%; in experiment [3], -0.89%; in experiment [4], -6.98%; in experiment [5], -4.84%.

Regarding `CCOc1ccc(-c2cc3n(n2)CC(C)(C(=O)NC2CCCCC2)N(C2CCCC2)C3=O)cc1` (stereo not given), the activity change, negative = inhibition in experiment [1] was -14.8%; in experiment [2], 2.4%; in experiment [3] it was -5.51%; in experiment [4] it was -2.11%; in experiment [5], -3.51%.

Take `Cn1c(=O)c2ccc(C(=O)NC3CCCC3)cc2n2c(=O)n(Cc3ccccc3F)nc12`: the activity change, negative = inhibition in experiment [1] came out at 2.53%; in experiment [2] it was 0%; in experiment [3], 1.56%; in experiment [4], 0.105%; in experiment [5], 3.94%.

With `CN1C(=O)C(Cc2c[nH]c3ccccc23)NC1=S` (stereo not given), the activity change, negative = inhibition in experiment [1] is 2.65%; in experiment [2], 5.99%; in experiment [3], 0.139%; in experiment [4], -13%; in experiment [5], -5.82%.

On to `CCC[C@H](N[C@H]1CCc2cc(F)cc(F)c2C1)C(=O)Nc1cn(C(C)(C)CNCC(C)(C)C)cn1`, for which the activity change, negative = inhibition in experiment [1] was -0.562%; in experiment [2] it was 2.05%; in experiment [3], -3.45%; in experiment [4], -17.9%; in experiment [5], -14.7%.

For the molecule `O=C(CCc1nnc2n(Cc3ccc(F)cc3)c(=O)c3ccccc3n12)NCc1ccccc1Cl`, the activity change, negative = inhibition is -7.55% in experiment [1]; 3.92% in experiment [2]; 2.83% in experiment [3]; -4.31% in experiment [4]; 1.25% in experiment [5].

Consider `O=[S+]([O-])(c1cccc(C(F)(F)F)c1)N1CC(CNc2cccnc2)C2(CN(c3ccccc3)C2)C1` (stereo not given), for which the activity change, negative = inhibition is -8.83% in experiment [1]; -9.5% in experiment [2]; -15.8% in experiment [3]; -11% in experiment [4]; -8.32% in experiment [5].

For the molecule `Cc1ccc(NC(=O)CSc2nnc3[nH]c(=O)c(C)nn23)cc1C`, the activity change, negative = inhibition was 1.28% in experiment [1]; 0% in experiment [2]; -1.55% in experiment [3]; -2.94% in experiment [4]; -2.58% in experiment [5].

Consider `COc1ccc(N(C(=O)c2ccncc2)S(=O)(=O)c2ccc3c(c2)n(C)c(=O)n3C)cc1`, for which the activity change, negative = inhibition is -2.05% in experiment [1]; 2.35% in experiment [2]; 1.8% in experiment [3]; 6.67% in experiment [4]; -2.2% in experiment [5].

Consider `CCCCOc1ccccc1-c1cc2n(n1)CC(C)(C(=O)NC1CCCCC1)N(CCC)C2=O` (stereo not given), for which the activity change, negative = inhibition in experiment [1] is 1.06%; in experiment [2], 5.05%; in experiment [3], -0.834%; in experiment [4] it was 4.27%; in experiment [5], -2.96%.

With `CCCn1c(=O)c2ccccc2n2c(SCC(=O)Nc3ccccc3CC)nnc12`, the activity change, negative = inhibition in experiment [1] turned out to be 0.677%; in experiment [2], 0%; in experiment [3], 3.18%; in experiment [4], 5.59%; in experiment [5], 5.5%.

For the molecule `CCOC(=O)c1cc2n(n1)CC(C)(C(=O)NCc1ccccc1)N(c1ccc(OC)cc1)C2=O` (stereo not given), the activity change, negative = inhibition in experiment [1] was 7.18%; in experiment [2], 0%; in experiment [3], 3.29%; in experiment [4] it was 5.77%; in experiment [5], 3.82%.

In the case of `Cc1ccc(Cn2c(=O)c3ccccc3n3c(=O)n(CC(=O)Nc4ccc(Cl)cc4)nc23)cc1`, the activity change, negative = inhibition came to 7.75% in experiment [1]; 3.91% in experiment [2]; 11% in experiment [3]; 8.44% in experiment [4]; 5.01% in experiment [5].

With `O=C(NCc1cccc(F)c1)c1nc2c(o1)CCN(CC1CCCC1)CC2`, the activity change, negative = inhibition in experiment [1] is -11.9%; in experiment [2] it was -7.95%; in experiment [3], -7.88%; in experiment [4], -13%; in experiment [5], -58.1%.

As for `O=C1CN(Cc2c(F)cccc2Cl)S(=O)(=O)c2ccccc2N1Cc1ccc(F)cc1`, the activity change, negative = inhibition is -7.19% in experiment [1]; 0% in experiment [2]; -2.56% in experiment [3]; -15% in experiment [4]; -11.4% in experiment [5].

For the molecule `CCNC(=O)[C@H]1O[C@@H](n2cnc3c(N)nc(NCCc4ccc(CCC(=O)O)cc4)nc32)[C@H](O)C1O` (stereo not given in full), the activity change, negative = inhibition is -10.9% in experiment [1]; -10.4% in experiment [2]; 3.46% in experiment [3]; -15.2% in experiment [4]; -7.89% in experiment [5].

`Cc1ccc(S(=O)(=O)N2CCCC(CNC(=O)c3cccs3)C2)cc1` (stereo not given): the activity change, negative = inhibition is -4.09% in experiment [1]; -5.15% in experiment [2]; -1.36% in experiment [3]; -13% in experiment [4]; -5.36% in experiment [5].

Regarding `CCOC(=O)c1cc2n(n1)CC(C)(C(=O)NC1CCCC1)N(c1ccccc1C)C2=O` (stereo not given), the activity change, negative = inhibition in experiment [1] came to 3.61%; in experiment [2] it was 1.42%; in experiment [3], 2.53%; in experiment [4], 5.69%; in experiment [5], 1.63%.

For the molecule `CCCn1c(=O)c2ccc(C(=O)NC(C)C)cc2n2c(SCC(=O)Nc3cccc(C)c3)nnc12`, the activity change, negative = inhibition in experiment [1] worked out at 5.54%; in experiment [2] it was 0%; in experiment [3], 7.84%; in experiment [4], 7.8%; in experiment [5], 5.95%.

As to `O=C1CN(Cc2ccc(-c3ccsc3)cc2)CCN1c1cc(Cl)ncn1`, the activity change, negative = inhibition was -8.87% in experiment [1]; -5.11% in experiment [2]; -5.72% in experiment [3]; -12.9% in experiment [4]; -13.5% in experiment [5].

With `Nc1nc(OCC2CCCCC2)c2[nH]cnc2n1`, the activity change, negative = inhibition is -9.16% in experiment [1]; 2.28% in experiment [2]; -5.26% in experiment [3]; -19.5% in experiment [4]; 0.167% in experiment [5].

With `CCOC(=O)N1CCN(C(=O)c2sc(C(C)C)nc2C)CC1`, the activity change, negative = inhibition was -1.33% in experiment [1]; -1.98% in experiment [2]; 0.89% in experiment [3]; 2.31% in experiment [4]; 6.94% in experiment [5].

As to `O=C1CC(c2nc(-c3ccc4nc[nH]c4c3)no2)CN1Cc1cccnc1` (stereo not given), the activity change, negative = inhibition in experiment [1] is -4%; in experiment [2] it was -8.95%; in experiment [3], -12.9%; in experiment [4], -11.6%; in experiment [5] it was -1.5%.

Consider `CCOc1ccc(CN2C(=O)c3cc(C(=O)OC)nn3CC2(C)C(=O)NC2CCC(C)CC2)cc1` (stereo not given), for which the activity change, negative = inhibition in experiment [1] came to 7.26%; in experiment [2], 1.3%; in experiment [3] it was 11.4%; in experiment [4] it was 8.13%; in experiment [5], 6.86%.

In the case of `COc1ccc2cc3n(c2c1)CC(C)(C(=O)NC1CCCC1)N(Cc1cccs1)C3=O` (stereo not given), the activity change, negative = inhibition was -3.28% in experiment [1]; 5.3% in experiment [2]; 3.06% in experiment [3]; -7.46% in experiment [4]; -0.306% in experiment [5].

For the molecule `Cn1c(=O)c2ccc(C(=O)NC3CCCCC3)cc2n2c(=O)n(CC(=O)Nc3ccccc3)nc12`, the activity change, negative = inhibition is -3.42% in experiment [1]; 0.068% in experiment [2]; 0.579% in experiment [3]; -1.91% in experiment [4]; -0.533% in experiment [5].

As for `NC(=O)CC[C@H](N)C(=O)O`, the activity change, negative = inhibition in experiment [1] was -4.5%; in experiment [2], 2.54%; in experiment [3], -0.704%; in experiment [4], -3.64%; in experiment [5], 8.98%.
